Experimental data taken from ChEMBL document CHEMBL4888484, “Replenishing the malaria drug discovery pipeline: Screening and hit evaluation of the MMV Hit Generation Library 1 (HGL1) against asexual blood stage Plasmodium falciparum ,using a nano luciferase reporter read-out” (2022).
The whole screen tested about 150,000 compounds, of which about 540 (0.36%) showed an effect of 50% or more. The list shows a part of the results.

Each compound was assayed on Plasmodium falciparum (assay: Primary screen in NF54 nanoGlo assay, in single point, at 2uM, 72h; a lower Z score goes with more inhibition). Conditions: timepoint 72 hour.
Assay type: functional, Erythrocyte
For O=C(NCc1ccc(OCc2cccnc2)cc1)c1ccc(F)cc1, the “% Inhibition” value was -1% and the Z score was 0.22.
For Cc1nn(C)c(C)c1-c1ccnc(NCCN2CCCCC2=O)n1, the “% Inhibition” value was -4% and the Z score was 0.59.
CCCC1(CCC)NC(=O)N(Cc2csc(N(CC)C(C)=O)n2)C1=O was tested, and the “% Inhibition” value was -22% and the Z score was 2.04.
With CCN(Cc1nnnn1C)c1ccccc1Cl the “% Inhibition” value was 1% and the Z score was -0.16.
In the case of O=S(=O)(c1ccc(Cl)s1)N1CCC(c2ccsc2)CC1, the “% Inhibition” value is reported as -14% and the Z score is reported as 1.98.
In the case of CC(C)[C@H](NC(=O)COc1cccc(-n2cnnc2)c1)c1nc2ccccc2n1C, the “% Inhibition” value is reported as -6% and the Z score is reported as 0.74.
In the case of CC(C)NC(=O)c1nc(S(C)(=O)=O)ncc1Cl, the “% Inhibition” value is reported as 8% and the Z score is reported as -1.19.
For Brc1ccccc1-n1cc(CNC[C@H]2CCOC2)nn1, the “% Inhibition” value was -1% and the Z score was 0.19.
With O=C(Nc1ccncc1)Nc1ccn(Cc2cccnc2)n1 the “% Inhibition” value was 29% and the Z score was -3.87.
With COc1cc(F)c(CN(C)Cc2cnccn2)c(F)c1 the “% Inhibition” value was 6% and the Z score was -0.91.
With CCn1cccc(NCc2csc(C)n2)c1=O the “% Inhibition” value was -13% and the Z score was 1.81.
In the case of CCCc1noc(CS(=O)(=O)C[C@H](O)c2ccccc2)n1, the “% Inhibition” value is reported as 3% and the Z score is reported as -0.51.
In the case of CC(=O)N1CC2=Nc3cccc4[nH]cc(c34)[C@H](c3ccc4c(c3)OCO4)C2=C1O, the “% Inhibition” value is reported as -3% and the Z score is reported as 0.49.
With O=C(NCCS(=O)(=O)c1ccc(F)cc1)c1n[nH]c2c1CCCCC2 the “% Inhibition” value was -17% and the Z score was 2.19.
For Cc1n[nH]c(C)c1[C@@H]1CCCCCN1C(=O)Nc1ccc(OC(C)C)cc1F, the “% Inhibition” value was -21% and the Z score was 2.44.
For COc1ccc(CN[C@@]2(CO)CCOC2)cc1OCc1ccccc1, the “% Inhibition” value was -8% and the Z score was 1.17.
In the case of CCN1CC(=O)N[C@H]2CN(C(=O)CCn3nnnc3C)CC[C@@H]2OCc2cccc(c2)Oc2cccc(c2)CC1=O, the “% Inhibition” value is reported as 4% and the Z score is reported as -0.73.
For N#CCC(=O)N1CCc2c(F)ccc(F)c21, the “% Inhibition” value was -12% and the Z score was 1.46.
With Oc1ccccc1CCc1nncn1-c1cccnc1 the “% Inhibition” value was -6% and the Z score was 1.06.
For CN(C(=O)N1CCCNC(=O)[C@@H]1Cc1ccccc1)c1ccc(F)cc1, the “% Inhibition” value was 1% and the Z score was -0.16.
Cc1nc(C2(O)CCN(C)CC2)n(-c2ccc(Cl)cc2C)n1 was tested, and the “% Inhibition” value was -7% and the Z score was 1.22.
COCCOCC(=O)N1CCC2(CC1)c1[nH]c3ccccc3c1CCN2C was tested, and the “% Inhibition” value was -2% and the Z score was 0.32.
In the case of Cc1cnc(C)c(-c2ccc(C(=O)N(C)Cc3nnc(C)o3)cc2)n1, the “% Inhibition” value is reported as -8% and the Z score is reported as 0.92.
For CCOC(=O)CCN(C)C(=O)c1nc(-c2ccccc2)cn1C, the “% Inhibition” value was -1% and the Z score was 0.21.
